Assay results published in PubChem BioAssay AID662 (National Center for Advancing Translational Sciences (NCATS), 2007).
Screen size: about 71,000 compounds; about 1,800 (2.5%) were called active. Inconclusive results, whose numbers are uncertain, are shown with a selection of clear calls. Calls follow the shape of the dose curve; as a rule, active = well fitted activation curve with a large enough effect in the signal ratio, with a control signal flat (not every such curve was filed as active); inconclusive = small, poorly fitted or top-dose-only effect, or effect the other way, or a change in a side signal; inactive = flat fitted curve, though single readings scatter; the % refers to the signal ratio. Where the call is inconclusive, the potency comes from a doubtful curve fit.

Assay: Cell signaling CRE-BLA (Fsk stim); as to activity change, negative = inhibition: % of control where 0% means no effect
Settings: CHO CRE-bla reporter (cAMP response element driving beta-lactamase), forskolin EC10, beta-lactamase ratio; activity change, negative = inhibition: at 38.2 µM (top of the series) unless noted
Procedure, shortened: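 CRE-bla CHO cells stimulated with EC10 NKH 477 (water-soluble forskolin) and compound titrations, 3 h at 37C; beta-lactamase read with CCF4 after 2 h at room temperature. Activity from 460/530 nm emission ratio, AC50 values for positive or negative modulation.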
Potency is read from the fitted curve at half-maximal effect; tags tell the direction and shape of the fitted curve.

| Compound | activity change, negative = inhibition | Potency |
| --- | --- | --- |
| C[C@@]1(C(NC(=O)Cc2ccc(C(F)(F)F)cc2)c2ccc(-c3ccccc3)cc2)C[C@H]1C1CCCCC1 (some centres not stated) | inconclusive: 4.75% |  |
| COC(=O)[C@@]1(Cc2ccc(F)cc2)[C@H]2c3cc(C(=O)N(C)C)n(Cc4ccc(O)c(OC)c4)c3C[C@H]2CN1C(=O)c1ccccc1 | inconclusive: 19.4% |  |
| COC(=O)CCCC(=O)OC | inactive |  |
| CN(C)c1ncc2nc(-c3ccc(F)cc3)c(=O)n(C[C@H]3CCCO3)c2n1 |  | active: 2.51 µM |
| Cc1ccc(-c2cc3nc(C)cc(NCc4ccco4)n3n2)cc1 |  | active: 12.6 µM |
| CCCc1nc(SCC(=O)Nc2cc(C)on2)c2c(=O)n(C)c(=O)n(C)c2n1 | inconclusive: 23.3% |  |
| Cc1nc(=O)cc(-c2ccccc2)n1-c1ccccc1 |  | inconclusive: 3.16 µM [falling, partial curve] |
| Cc1sc2nc(-c3cccs3)nc(N3CCCN(C)CC3)c2c1C |  | inconclusive: 10 µM [rising, single point] |
| CS(=O)(=O)N1CCC2(CC1)CN(c1ccccc1)C2 | inactive |  |
| O=S(=O)(NCc1ccccc1)c1cnc[nH]1 | inconclusive: 8.09% |  |
| O=C(CCCNS(=O)(=O)c1cccc2nsnc12)NC1CCCCC1 | inconclusive: 6.18% |  |
| CC1(c2cccs2)CC(c2cccs2)=C(C#N)C(=O)N1 (configuration not stated) | inconclusive: -10.3% |  |
| CC(C)C[C@@H](CC(=O)N[C@@H](CCCN)CC(=O)N[C@@H]1CCCC[C@H]1C(=O)N[C@H](CC(=O)N[C@@H](CCC(=O)O)CC(=O)O)CC(C)C)NC(=O)[C@@H]1CCCC[C@H]1N | inconclusive: -21% |  |
| Nc1c(C(=O)Nc2ccccc2)sc2nc(-c3ccco3)ccc12 |  | inconclusive: 10 µM [falling, partial curve] |
| N#Cc1c(-c2ccco2)cc(C2CC2)nc1SCC(=O)c1ccccc1 | inactive |  |
| COc1ccc2c(CC(=O)Nc3ccc(OC)c(NS(=O)(=O)c4ccc(F)cc4)c3)coc2c1 | inconclusive: -17.2% |  |
| COc1ccc(S(=O)(=O)C(C#N)c2nc3ccccc3nc2N2CCCCC2)cc1 (configuration not stated) | inconclusive: 20.9% |  |
| Cc1cn(C2OC(COC(=O)c3ccccc3)C(O)C2O)c(=O)[nH]c1=O (configuration not stated) |  | inconclusive: 5.01 µM [falling, single point] |
| CCC1CCCCN1CC(=O)c1c(C)[nH]c2ccccc12 (configuration not stated) | inactive |  |
| COCCCNC(CC(=O)Nc1ccc(OC)cc1OC)C(=O)O (configuration not stated) | inconclusive: -0.86% |  |
| O=C(CSc1nnc(-c2ccc3c(c2)OCCO3)o1)NC1CCCCC1 |  | inconclusive: 3.16 µM [rising, full curve, poor fit] |

| Compound | activity change, negative = inhibition | Potency |
| --- | --- | --- |
| Cc1cccc(OCCSc2nnc(-c3ccoc3C)n2C)c1 | inconclusive: 11.7% |  |
| CCc1ccc(Nc2cc(C)nc3nc(C)nn23)cc1 |  | inconclusive: 2.51 µM [rising, full curve] |
| COc1cc2c(cc1OC)CN(Cc1cccs1)CC2 | inconclusive: 12.8% [at 7.6 µM] |  |
| CCCCN(c1ccccc1)c1ncnc2c1cnn2C |  | inconclusive: 2.51 µM [rising, partial curve, poor fit] |
| CCOC(=O)c1c(C)c2c(n1C)CCC/C2=N\O |  | inconclusive: 10 µM [rising, partial curve] |
| O=C(O)CSc1cccc2cccnc12 | inactive |  |
| c1ccc(-c2noc(-c3ccc4ccccc4c3)n2)nc1 | inactive |  |
| COc1cc2[nH]c(=S)n(C3CCCC3)c(=O)c2cc1OC |  | inconclusive: 7.94 µM [rising, partial curve] |
| Cc1ccc2c(COn3nnc4ccc(S(=O)(=O)N(C)C)cc43)cc(=O)oc2c1C | inconclusive: 20% |  |
| COc1ccc(Cn2c3nc4ccccc4nc3c3c(=O)n(Cc4ccco4)c(C)nc32)cc1 |  | inconclusive: 12.6 µM [rising, partial curve] |
| Cc1ccc(NC(=O)N(CCCN2CCOCC2)Cc2cc3cc4c(cc3[nH]c2=O)OCO4)cc1 |  | inconclusive: 12.6 µM [rising, single point] |
| Cn1c(C(C#N)C(=O)c2ccco2)nc2ccccc21 (configuration not stated) | inactive |  |
| O=S(=O)(c1ccccc1)N1CCC2(CCN(c3ncccn3)CC2)CC1 | inactive |  |
| O=C(O)CCC(NC(=O)OCc1ccccc1)C(=O)O (configuration not stated) | inactive |  |
| Cc1cc(C)c2c(c1)OC(O)(C(F)F)CC2=O (configuration not stated) | inconclusive: -12.3% [at 7.6 µM] |  |
| CCCCNC(=O)Nc1cnn(CC)c1C(N)=O | inconclusive: 37.1% |  |
| CCC(=O)c1ccc(N2CCN(C(=O)c3ccc(Br)cc3)CC2)c(F)c1 | inconclusive: 7.01% |  |
| OC(COc1cccc(OCC(O)CN2CCCC2)c1)CN1CCCC1 (configuration not stated) | inconclusive: -11.4% [at 7.6 µM] |  |
| COc1cc(C2=NOC(C(=O)N3CCCCCC3)C2)cc(OC)c1OC (configuration not stated) |  | inconclusive: 12.6 µM [rising, partial curve] |
| O=C(c1ccccc1)N1CCn2c(nc3ccccc32)C1 | inconclusive: 6.18% [at 7.6 µM] |  |
| CCC(c1nnnn1CCOC)N1CCN(C(=O)c2ccco2)CC1 (configuration not stated) | inactive |  |

| Compound | activity change, negative = inhibition | Potency |
| --- | --- | --- |
| O=C(NCCN1CCCCCC1)c1ccc(N2CCCC2=O)cc1 | inactive |  |
| CCCC[C@@H]1C[C@H]1C(NC(=O)c1ccco1)c1ccc(-c2ccccc2)cc1 (some centres not stated) | inactive |  |
| Cc1sc2ncn(CCn3cnc4sc(C)c(C)c4c3=O)c(=O)c2c1C | inconclusive: 9.82% |  |
| CSc1c(CC(=O)NCCO)n(C)c2ccccc12 | inactive |  |
| CC1CC2(CC(C)(C(=O)CSc3n[nH]c(-c4ccccc4Cl)n3)OC2=O)C(=O)O1 (configuration not stated) | inconclusive: -13.5% |  |
| CCN1C(=O)C2(C(C#N)=C(N)Oc3n[nH]c(C(C)C)c32)c2ccccc21 (configuration not stated) | inconclusive: -23.6% |  |
| COc1ccccc1OCCNC(=O)c1ccccc1C | inactive |  |
| COc1ccc(-c2cn3c(n2)CCC3)cc1 |  | inconclusive: 5.01 µM [falling, single point] |
| O=C(O)c1cc(-c2ccco2)nc2ccccc12 | inactive |  |
| CN1CCN(c2ncc3nc(-c4cn(C)c5ccccc45)c(=O)n(Cc4cccs4)c3n2)CC1 |  | inconclusive: 1 µM [rising, full curve] |
| CC1=C(C(=O)OC(C)C)C(c2cccs2)n2ncnc2N1 (configuration not stated) | inactive |  |
| Cc1cc(OCC(=O)N2CCCC2)ccc1Cl |  | inconclusive: 1 µM [rising, single point] |
| CC(C)(Oc1cccc2ccccc12)C(=O)O | inconclusive: -9.71% |  |
| Cc1cc2nc(-c3cccc(NC(=O)c4ccc(Br)o4)c3C)oc2cc1C | inconclusive: 27.2% [at 7.6 µM] |  |
| CC(=O)N1CCN(CC(=O)Nc2c(Cl)cccc2Cl)CC1 | inconclusive: -21.8% |  |
| CCCCOCCCNS(=O)(=O)c1ccccc1 | inconclusive: -11.3% [at 7.6 µM] |  |
| COc1ccc2[nH]c3nc(SCc4nnc(-c5ccccc5)o4)nnc3c2c1 |  | active: 3.98 µM |
| O=C(O)c1ccc(C(=O)Nc2cccc3ccccc23)c(C(=O)O)c1 | inactive: -0.897% [at 7.6 µM] |  |
| O=C(CC1SC(=O)N(c2ccccc2)C1=O)Nc1ccccc1 (configuration not stated) | inconclusive: -19.2% |  |
| COc1ccccc1N1CCN(C(=O)c2cc(-c3ccc(Cl)cc3)on2)CC1 | inconclusive: 0.943% |  |
| CCOc1ccc(N(CC(=O)N2CC=C(c3ccccc3)CC2)S(=O)(=O)c2c(C)noc2C)cc1 | inconclusive: 26.4% [cytotoxic] |  |

| Compound | activity change, negative = inhibition | Potency |
| --- | --- | --- |
| O=C(Oc1ccccc1)N1CCN(c2ccc(F)cc2)CC1 | inconclusive: 22.1% [at 7.6 µM] |  |
| O=C(CN1CCOCC1)Nc1ccccc1-c1ccccc1 | inactive |  |
| CCOc1ccc2nc(NCCNS(=O)(=O)c3ccccc3)c(C#N)cc2c1 |  | inconclusive: 7.94 µM [rising, partial curve] |
| Cc1c(C(=O)O)oc2ccc(S(=O)(=O)N3CCC(C)CC3)cc12 | inconclusive: 1.12% |  |
| CN1CCc2cccc3c2[C@@H]1Cc1ccc(O)c(O)c1-3 |  | inconclusive: 15.8 µM [falling, partial curve, poor fit] |
| COC(=O)c1nc2n(n1)C(c1ccc(OC)c(OC)c1)C(C(=O)OC1CCCCC1)=C(C)N2 (configuration not stated) | inconclusive: -10.4% |  |
| Cc1nc(-c2cnn(-c3ccccc3)c2)c2cc(C)oc2n1 |  | active: 3.98 µM |
| C[C@H]1C[C@@H]2[C@@H]([C@@H](O)C[C@@]3(C)[C@H]2CC[C@]3(O)C(=O)CO)[C@@]2(C)C=CC(=O)C=C12 | inactive |  |
| O=C(CS(=O)(=O)Cc1ccccc1)Nc1nc2c(s1)CCCC2 | inactive |  |
| CCOC(=O)N1CCN(C(=O)c2cn(C)c3ccc(S(=O)(=O)N4CCCC4)cc3c2=O)CC1 | inconclusive: 13.5% |  |
| CC(=O)C(Sc1nc(NC(C)(C)C)nc(N(C)C)n1)C(C)=O |  | inconclusive: 3.98 µM [rising, partial curve] |
| CC(=O)Nc1cccc(NC(=O)CSc2nnnn2C(C)C)c1 | inconclusive: -0.639% |  |
| COc1ccc(C(=O)N2CCC3(CC2)CN(Cc2ccc(C#N)cc2)C3)cc1 | inactive |  |
| CC(=O)c1c(C)[nH]c(C(=O)CSc2nc3ccccc3c(=O)n2CCCN2CCOCC2)c1C | inconclusive: 13.5% |  |
| CCOC(=O)C1=C(CN2CCSCC2)NC(=O)NC1c1cc(C)ccc1C (configuration not stated) |  | inconclusive: 10 µM [rising, single point] |
| COc1ccc(C2CC(C(F)(F)F)n3nc(C(N)=O)c(Cl)c3N2)cc1OC (configuration not stated) | inconclusive: 26% |  |
| N#Cc1c(N)c(C#N)c(-c2ccc(O)cc2)c2c1CCCC2 | inconclusive: 3.83% |  |
| CCN(CC)CCN(Cc1cc2cc(C)ccc2[nH]c1=O)C(=O)Nc1ccccc1OC | inconclusive: -2.9% |  |
| C=CCn1c(=N)c(C(=O)NCCCOC)cc2c(=O)n3ccccc3nc21 |  | active: 10 µM |
